In the supplement of paper PMC8728848:
This is one part of the list.

Tests used:
Experiment in all cases: glycan array binding signal (z-score within array); higher = stronger binding
Details in all cases: glycan notation: IUPAC condensed, linker removed
[1] = target: Fuc(a1-3)[Gal(b1-4)]GlcNAc6S
Summary of the method: (§1)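 Glycan array data were curated from 3228 arrays in the Consortium for Functional Glycomics database and kept only where the protein sequence was available. Glycan names were converted to IUPAC-condensed notation, and columns mapping to the same glycan were averaged. The binding signal is a within-array Z-score, averaged across arrays of the same protein sequence at different concentrations or buffers and across linkers. Negative Z-scores can be read as non-binding.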

[2] = target: Fuc(a1-3)[Gal3S(b1-4)]GlcNAc
Summary of the method: as §1

[3] = target: Fuc(a1-3)[Gal3S(b1-4)]GlcNAc6S
Summary of the method: as §1

[4] = target: Fuc(a1-3)[GalNAc(b1-4)]GlcNAc
Summary of the method: as §1

Fuc(a1-4)GlcNAc = target: Fuc(a1-4)GlcNAc
Summary of the method: as §1

Fuc(b1-3)GlcNAc = target: Fuc(b1-3)GlcNAc
Summary of the method: as §1

Gal(a1-2)Gal = target: Gal(a1-2)Gal
Summary of the method: as §1

Gal(a1-3)Gal = target: Gal(a1-3)Gal
Summary of the method: as §1

Gal(a1-3)Gal(b1-3)GlcNAc = target: Gal(a1-3)Gal(b1-3)GlcNAc
Summary of the method: as §1

[5] = target: Gal(a1-3)Gal(b1-3)GlcNAc(b1-2)Man(a1-3)[Gal(a1-3)Gal(b1-3)GlcNAc(b1-2)Man(a1-6)]Man(b1-4)GlcNAc(b1-4)GlcNAc
Summary of the method: as §1

[6] = target: Gal(a1-3)Gal(b1-3)GlcNAc(b1-3)GalNAc
Summary of the method: as §1

[7] = target: Gal(a1-3)Gal(b1-3)[Fuc(a1-4)]GlcNAc(b1-2)Man(a1-3)[Gal(a1-3)Gal(b1-3)[Fuc(a1-4)]GlcNAc(b1-2)Man(a1-6)]Man(b1-4)GlcNAc(b1-4)GlcNAc
Summary of the method: as §1

Gal(a1-3)Gal(b1-4)Glc = target: Gal(a1-3)Gal(b1-4)Glc
Summary of the method: as §1

Gal(a1-3)Gal(b1-4)GlcNAc = target: Gal(a1-3)Gal(b1-4)GlcNAc
Summary of the method: as §1

[8] = target: Gal(a1-3)Gal(b1-4)GlcNAc(b1-3)GalNAc
Summary of the method: as §1

[9] = target: Gal(a1-3)Gal(b1-4)[Fuc(a1-3)]GlcNAc
Summary of the method: as §1

[10] = target: Gal(a1-3)Gal(b1-4)[Fuc(a1-3)]GlcNAc(b1-2)Man(a1-3)[Gal(a1-3)Gal(b1-4)[Fuc(a1-3)]GlcNAc(b1-2)Man(a1-6)]Man(b1-4)GlcNAc(b1-4)GlcNAc
Summary of the method: as §1

Gal(a1-3)GalNAc = target: Gal(a1-3)GalNAc
Summary of the method: as §1

[11] = target: Gal(a1-3)[Gal(a1-4)]Gal(b1-4)GlcNAc
Summary of the method: as §1

[12] = target: Gal(a1-4)Gal(b1-3)GlcNAc(b1-2)Man(a1-3)[Gal(a1-4)Gal(b1-3)GlcNAc(b1-2)Man(a1-6)]Man(b1-4)GlcNAc(b1-4)GlcNAc
Summary of the method: as §1

Gal(a1-4)Gal(b1-4)Glc = target: Gal(a1-4)Gal(b1-4)Glc
Summary of the method: as §1

Gal(a1-4)Gal(b1-4)GlcNAc = target: Gal(a1-4)Gal(b1-4)GlcNAc
Summary of the method: as §1

[13] = target: Gal(a1-4)Gal(b1-4)GlcNAc(b1-2)Man(a1-3)[Gal(a1-4)Gal(b1-4)GlcNAc(b1-2)Man(a1-6)]Man(b1-4)GlcNAc(b1-4)GlcNAc
Summary of the method: as §1

[14] = target: Gal(a1-4)Gal(b1-4)GlcNAc(b1-3)Gal(b1-4)Glc
Summary of the method: as §1

Gal(a1-4)GlcNAc = target: Gal(a1-4)GlcNAc
Summary of the method: as §1

Gal(a1-6)Glc = target: Gal(a1-6)Glc
Summary of the method: as §1

Gal(b1-2)Gal = target: Gal(b1-2)Gal
Summary of the method: as §1

Gal(b1-3)Gal = target: Gal(b1-3)Gal
Summary of the method: as §1

Gal(b1-3)Gal(b1-4)GlcNAc = target: Gal(b1-3)Gal(b1-4)GlcNAc
Summary of the method: as §1

[15] = target: Gal(b1-3)Gal(b1-4)GlcNAc(b1-2)Man(a1-3)[Gal(b1-3)Gal(b1-4)GlcNAc(b1-2)Man(a1-6)]Man(b1-4)GlcNAc(b1-4)GlcNAc
Summary of the method: as §1

Gal(b1-3)GalNAc = target: Gal(b1-3)GalNAc
Summary of the method: as §1

[16] = target: Gal(b1-3)GalNAc(a1-3)[Fuc(a1-2)]Gal(b1-4)Glc
Summary of the method: as §1

[17] = target: Gal(b1-3)GalNAc(a1-3)[Fuc(a1-2)]Gal(b1-4)GlcNAc
Summary of the method: as §1

[18] = target: Gal(b1-3)GalNAc(b1-3)Gal(a1-4)Gal(b1-4)Glc
Summary of the method: as §1

[19] = target: Gal(b1-3)GalNAc(b1-4)Gal(b1-4)Glc
Summary of the method: as §1

[20] = target: Gal(b1-3)GalNAc(b1-4)[Neu5Ac(a2-3)]Gal(b1-4)Glc
Summary of the method: as §1

Gal(b1-3)GlcNAc = target: Gal(b1-3)GlcNAc
Summary of the method: as §1

[21] = target: Gal(b1-3)GlcNAc(a1-6)Gal(b1-4)GlcNAc
Summary of the method: as §1

[22] = target: Gal(b1-3)GlcNAc(b1-2)Man(a1-3)[Gal(b1-3)GlcNAc(b1-2)Man(a1-6)]Man(b1-4)GlcNAc(b1-4)GlcNAc
Summary of the method: as §1

[23] = target: Gal(b1-3)GlcNAc(b1-2)Man(a1-3)[Gal(b1-3)GlcNAc(b1-2)Man(a1-6)]Man(b1-4)GlcNAc(b1-4)[Fuc(a1-6)]GlcNAc
Summary of the method: as §1

[24] = target: Gal(b1-3)GlcNAc(b1-2)[Gal(b1-3)GlcNAc(b1-6)]Man(a1-6)[Gal(b1-3)GlcNAc(b1-2)Man(a1-3)]Man(b1-4)GlcNAc(b1-4)GlcNAc
Summary of the method: as §1

[25] = target: Gal(b1-3)GlcNAc(b1-3)Gal(b1-3)GlcNAc
Summary of the method: as §1

[26] = target: Gal(b1-3)GlcNAc(b1-3)Gal(b1-4)Glc
Summary of the method: as §1

[27] = target: Gal(b1-3)GlcNAc(b1-3)Gal(b1-4)GlcNAc
Summary of the method: as §1

[28] = target: Gal(b1-3)GlcNAc(b1-3)Gal(b1-4)GlcNAc(b1-6)[Gal(b1-3)GlcNAc(b1-3)]Gal(b1-4)Glc
Summary of the method: as §1

B1: ASAL (Allium sativum), P83886 (protein)
chain: MGRTTSSPKAMMRIATVAAILTILASTCMARNVLTNGEGLYAGQSLDVEQYKFIMQDDCNLVLYEYSTPIWASNTGVTGKNGCRAVMQRDGNFVVYDVNGRPVWASNSVRGNGNYILVLQKDRNVVIYGSDIWSTGTYRRSVGGAVVMAMNGTVDGGSVIGPVVVNQNVTAAIRKVGTGAA
glycan array binding signal (z-score) [1]: -0.224 | glycan array binding signal (z-score) [2]: -0.258 | glycan array binding signal (z-score) [3]: -0.222 | glycan array binding signal (z-score) [4]: -0.239 | glycan array binding signal (z-score) (Fuc(a1-4)GlcNAc): -0.285 | glycan array binding signal (z-score) (Fuc(b1-3)GlcNAc): -0.278 | glycan array binding signal (z-score) (Gal(a1-2)Gal): -0.247 | glycan array binding signal (z-score) (Gal(a1-3)Gal): -0.285 | glycan array binding signal (z-score) (Gal(a1-3)Gal(b1-3)GlcNAc): -0.304 | glycan array binding signal (z-score) [5]: -0.177 | glycan array binding signal (z-score) [6]: -0.206 | glycan array binding signal (z-score) [7]: -0.093 | glycan array binding signal (z-score) (Gal(a1-3)Gal(b1-4)Glc): -0.155 | glycan array binding signal (z-score) (Gal(a1-3)Gal(b1-4)GlcNAc): -0.268 | glycan array binding signal (z-score) [8]: -0.293 | glycan array binding signal (z-score) [9]: -0.146 | glycan array binding signal (z-score) [10]: -0.115 | glycan array binding signal (z-score) (Gal(a1-3)GalNAc): -0.243 | glycan array binding signal (z-score) [11]: -0.174 | glycan array binding signal (z-score) [12]: -0.169 | glycan array binding signal (z-score) (Gal(a1-4)Gal(b1-4)Glc): -0.282 | glycan array binding signal (z-score) (Gal(a1-4)Gal(b1-4)GlcNAc): -0.236 | glycan array binding signal (z-score) [13]: -0.228 | glycan array binding signal (z-score) [14]: -0.208 | glycan array binding signal (z-score) (Gal(a1-4)GlcNAc): -0.29 | glycan array binding signal (z-score) (Gal(a1-6)Glc): -0.285 | glycan array binding signal (z-score) (Gal(b1-2)Gal): -0.276 | glycan array binding signal (z-score) (Gal(b1-3)Gal): -0.153 | glycan array binding signal (z-score) (Gal(b1-3)Gal(b1-4)GlcNAc): -0.227 | glycan array binding signal (z-score) [15]: -0.158 | glycan array binding signal (z-score) (Gal(b1-3)GalNAc): -0.28 | glycan array binding signal (z-score) [16]: -0.229 | glycan array binding signal (z-score) [17]: -0.248 | glycan array binding signal (z-score) [18]: -0.239 | glycan array binding signal (z-score) [19]: -0.206 | glycan array binding signal (z-score) [20]: -0.297 | glycan array binding signal (z-score) (Gal(b1-3)GlcNAc): -0.266 | glycan array binding signal (z-score) [21]: -0.252 | glycan array binding signal (z-score) [22]: -0.113 | glycan array binding signal (z-score) [23]: 0.374 | glycan array binding signal (z-score) [24]: -0.078 | glycan array binding signal (z-score) [25]: -0.258 | glycan array binding signal (z-score) [26]: -0.196 | glycan array binding signal (z-score) [27]: -0.285 | glycan array binding signal (z-score) [28]: -0.273
